This note sets out measurements from PubChem BioAssay AID1745853 (National Center for Advancing Translational Sciences (NCATS), 2022).

Common to all, as to assay: Primary Screen for Target Class Profiling of Small Molecule Inhibitors of Methyltransferases
Assay [1] concerns the target Glycine N-methyltransferase (Homo sapiens) (UniProt Q14749). Particulars: purified enzyme, MTase-Glo SAH luminescence; measured here: GNMT inhibition; at 40 µM; stronger effect = lower value. An outline of the steps:
(§1)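 Each enzyme was reacted with SAM and its substrate, with compounds tested once at 40 uM; SAH formed was read by MTase-Glo luminescence.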

The target of assay [2] is Guanidinoacetate N-methyltransferase (Homo sapiens) (UniProt Q14353). The settings on record: purified enzyme, MTase-Glo SAH luminescence; measured here: GAMT inhibition; at 40 µM; stronger effect = lower value. An outline of the steps: as §1
The target in assay [3] is Histamine N-methyltransferase (Homo sapiens) (UniProt P50135). The settings on record: purified enzyme, MTase-Glo SAH luminescence; measured here: HNMT inhibition; at 40 µM; stronger effect = lower value. An outline of the steps:
as §1

The target in assay [4] is Nicotinamide N-methyltransferase (Homo sapiens) (UniProt P40261). Particulars: purified enzyme, MTase-Glo SAH luminescence; measured here: NNMT inhibition; at 40 µM; stronger effect = lower value. An outline of the steps: as §1
Assay [5] concerns the target Phenylethanolamine N-methyltransferase (Homo sapiens) (UniProt P11086). Particulars: purified enzyme, MTase-Glo SAH luminescence; measured here: PNMT inhibition; at 40 µM; stronger effect = lower value. An outline of the steps:
as §1

Structures are written as SMILES. This is one part of the list. These are further read-outs of the screen, such as a control signal, another cell line or another target. No call is given for them.
% is scaled to controls: 0 for no effect and ±100 for the full control effect.

`C=C1C(=O)O[C@H]2[C@H]1CC/C(C)=C/CC[C@@]1(C)O[C@@H]21`: the activity change, negative = inhibition in assay [1] was -3.5%; in assay [2] it was -16.4%; in assay [3], -5.47%; in assay [4], -21.5%; in assay [5], -6.22%.

With `CCOC(=O)C1CCCN(c2nc3c(S(=O)(=O)c4ccc(C(C)C)cc4)nnn3c3ccccc23)C1` (stereo not drawn), the activity change, negative = inhibition was -18.9% in assay [1]; 0% in assay [2]; 8.8% in assay [3]; -4% in assay [4]; -0.547% in assay [5].

Regarding `CC(C)n1c(=O)c2ccc(C(=O)NC3CCCCC3)cc2n2c(=O)n(Cc3cccc(Cl)c3)nc12`, the activity change, negative = inhibition in assay [1] stood at 4.45%; in assay [2] it was 0%; in assay [3], 9.1%; in assay [4], 7.27%; in assay [5], 6.37%.

As for `CN(C)C(=O)N1CCCC(C(=O)NCCc2nc(-c3ccccn3)no2)C1` (stereo not drawn), the activity change, negative = inhibition in assay [1] is 2.79%; in assay [2], -3.25%; in assay [3] it was -0.534%; in assay [4], -0.402%; in assay [5], -3.82%.

For `CC1(C(=O)NC2CCCCCCC2)Cn2c(cc3sccc32)C(=O)N1Cc1ccc2c(c1)OCO2` (stereo not drawn), the activity change, negative = inhibition in assay [1] was -4.06%; in assay [2] it was 4.66%; in assay [3], -2.1%; in assay [4], -3.49%; in assay [5], 1.16%.

For `CCOC(=O)c1cc2n(n1)CC(C)(C(=O)NCc1ccc(F)cc1)N(c1cccc(CC)c1)C2=O` (stereo not drawn), the activity change, negative = inhibition in assay [1] is 1.57%; in assay [2], 2.31%; in assay [3] it was 8.66%; in assay [4] it was 2.22%; in assay [5], 1.22%.

As to `CCOC(=O)c1cc2n(n1)CC(C)(C(=O)NC1CCCCCC1)N(c1ccc(C)c(Cl)c1)C2=O` (stereo not drawn), the activity change, negative = inhibition in assay [1] is 2.5%; in assay [2], 3.99%; in assay [3], 2.04%; in assay [4] it was 0.725%; in assay [5], 4.79%.

As to `CC1(C(=O)NCc2ccccc2)Cn2nc(-c3ccccc3)cc2C(=O)N1c1ccc2c(c1)OCO2` (stereo not drawn), the activity change, negative = inhibition is -0.056% in assay [1]; 3.41% in assay [2]; -1.51% in assay [3]; -3.12% in assay [4]; -1.26% in assay [5].

As for `CCOc1ccc(CCNC(=O)CCc2nnc3n(CC(C)C)c(=O)c4ccccc4n23)cc1`, the activity change, negative = inhibition in assay [1] is -3.42%; in assay [2], 3.74%; in assay [3], 1.21%; in assay [4], -3.77%; in assay [5] it was -2.39%.

For `Cc1ccc(N2C(=O)c3cc(-c4cccs4)nn3CC2(C)C(=O)NC2CCCCC2)cc1` (stereo not drawn), the activity change, negative = inhibition in assay [1] turned out to be 4.99%; in assay [2], 7.33%; in assay [3], 9.77%; in assay [4], 11.6%; in assay [5], 4.28%.

Regarding `C[C@]12CC[C@@H]3c4ccc(O)c(O)c4CC[C@H]3[C@@H]1CCC2=O`, the activity change, negative = inhibition in assay [1] was -14%; in assay [2], -17.5%; in assay [3] it was -3.74%; in assay [4], -29.7%; in assay [5], -21.5%.

As for `O=C(CCNC(=O)c1cnccn1)NC1CCCc2c1[nH]c1ccc(Cl)cc21` (stereo not drawn), the activity change, negative = inhibition in assay [1] is -11.5%; in assay [2] it was -7.97%; in assay [3], -1.41%; in assay [4], -18.8%; in assay [5] it was 3.46%.

As for `COc1ccc2cc(C3CN(C(=O)CNC(=O)C(C)C)CCO3)ccc2c1` (stereo not drawn), the activity change, negative = inhibition in assay [1] was -0.97%; in assay [2] it was 1.54%; in assay [3], 1.61%; in assay [4], -9.11%; in assay [5], 15.3%.

Turning to `CCOC(=O)N1c2ccc(C(F)(F)F)cc2[C@@H](N(Cc2cc(C(F)(F)F)cc(C(F)(F)F)c2)C(=O)OC)C[C@H]1CC`, the activity change, negative = inhibition in assay [2] is -16.6%; in assay [4], -23.9%; in assay [5] it was -5.01%.

Consider `COc1cc(C)cc(C(C(=O)O)N2CCN(c3cnccn3)CC2)c1OC` (stereo not drawn), for which the activity change, negative = inhibition in assay [1] was -2.67%; in assay [2], -4.53%; in assay [3], -1.4%; in assay [4], -11.1%; in assay [5] it was -4.98%.

Turning to `COc1ccc(OC)c(CCN2C(=O)c3cc4ccccc4n3CC2(C)C(=O)NCc2ccccc2OC)c1` (stereo not drawn), the activity change, negative = inhibition amounted to 5.2% in assay [1]; 0% in assay [2]; 6.06% in assay [3]; 7.33% in assay [4]; 0.532% in assay [5].

For `C=CCNC(=O)c1ccc2c(=O)[nH]c3c(C(=O)NC(C)C)sc(=S)n3c2c1`, the activity change, negative = inhibition in assay [1] is -7.99%; in assay [2], 4.78%; in assay [3], 4.48%; in assay [4], -11.9%; in assay [5], -24.5%.

Turning to `CC(NC(=O)Cn1c(=O)oc2cc(S(=O)(=O)NC3CCCC3)ccc21)c1ccccc1` (stereo not drawn), the activity change, negative = inhibition in assay [1] was -1.71%; in assay [2], 0.508%; in assay [3] it was -4.17%; in assay [4], -7.55%; in assay [5], -6.36%.

Take `O=C(NCCN1CCCC1)c1cc2n(n1)CCCN(Cc1ccc(Cl)cc1)C2=O`: the activity change, negative = inhibition is -4.38% in assay [1]; 0% in assay [2]; -12.2% in assay [3]; -2.95% in assay [4]; 0.239% in assay [5].

For `O=S(=O)(N[C@H]1CO[C@H]2[C@@H]1OC[C@H]2O)c1ccc(Cl)cc1`, the activity change, negative = inhibition in assay [1] is -3.02%; in assay [2], -0.791%; in assay [3], -0.09%; in assay [4], -5.52%; in assay [5], -2.18%.

For the molecule `Cc1ccc(NS(=O)(=O)c2ccc3c(c2)[C@H]2C=CC[C@H]2[C@@H](c2cccc(Cl)c2)N3)cc1C`, the activity change, negative = inhibition in assay [1] is -16.4%; in assay [2], -3.31%; in assay [3] it was -9.93%; in assay [4], -17.1%; in assay [5], -7.4%.

On to `COc1ccccc1N1CCN(S(=O)(=O)c2ccc3c(c2)n(C)c(=O)n3C)CC1`, for which the activity change, negative = inhibition in assay [1] was found to be 1.68%; in assay [2], 0.406%; in assay [3] it was 9.14%; in assay [4] it was 14.7%; in assay [5], 2.25%.

Take `C=C1[C@H]2CC[C@H](C(=O)O)[C@@]23CC[C@H](C3)C1(C)C`: the activity change, negative = inhibition is -9.93% in assay [1]; -22.7% in assay [2]; -2.52% in assay [3]; -38.7% in assay [4]; -5.6% in assay [5].

As to `O=C(Cn1nc2n(CCc3ccccc3)c(=O)c3ccccc3n2c1=O)Nc1ccc(F)cc1F`, the activity change, negative = inhibition in assay [1] was -1.6%; in assay [2] it was 2.07%; in assay [3], 3.6%; in assay [4] it was -5.66%; in assay [5], -1.04%.

Turning to `Cc1[nH]c2ccccc2c1CC(=O)NCc1ccccc1-n1cncn1`, the activity change, negative = inhibition in assay [1] was -0.564%; in assay [2], 4.73%; in assay [3] it was 2.92%; in assay [4] it was -4.43%; in assay [5], 10.3%.

With `CN(C)C[C@@H]1CN(C2CCOCC2)C[C@H]1NC(=O)C1CC=CCC1` (stereo partly drawn), the activity change, negative = inhibition in assay [1] was -7.01%; in assay [2] it was -7.46%; in assay [3] it was -4.79%; in assay [4] it was -8.11%; in assay [5] it was -3.56%.

With `Cc1cnc(C(=O)NC2CC(c3nnc(CO)n3C3CC3)C2)[nH]1` (stereo not drawn), the activity change, negative = inhibition in assay [1] was -7.52%; in assay [2], -8.8%; in assay [3], -3.48%; in assay [4], -11%; in assay [5], 1.68%.

With `O=C(c1cccc(F)c1F)N1CCCC2(CCNCC2)CC1`, the activity change, negative = inhibition in assay [1] was 0.98%; in assay [2] it was 0.618%; in assay [3], -2.76%; in assay [4], 5.15%; in assay [5] it was -1.31%.

With `CCN(CC)CCNC(=O)CCc1nnc2n(Cc3ccccc3Cl)c(=O)c3ccccc3n12`, the activity change, negative = inhibition in assay [1] is -3.23%; in assay [2], -11.6%; in assay [3] it was -35.1%; in assay [4], -1.89%; in assay [5] it was -7.36%.

With `Cc1cnn(-c2cc(N3CCC(n4cc(C5CCCC5)nn4)CC3)ncn2)c1`, the activity change, negative = inhibition was -16.2% in assay [1]; -0.888% in assay [2]; -11.7% in assay [3]; -12.9% in assay [4]; -1.02% in assay [5].
